Data taken from the supplement of paper PMC10037445.
Over roughly 2,900 compounds, “NF-kB SEAP reporter activity, fold change vs agonist alone” has its median near 0.99; the highest 2% begin near 2.6. This is one part of the list.

Columns and labels:
RAW-Dual [1] = assay: NF-kB SEAP reporter activity, fold change vs agonist alone; cytotoxicity flag (confluency mask): not cytotoxic; higher = enhanced NF-kB activity
Method in brief: (§1)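 Reporter activity is given as fold change relative to agonist-alone wells. To measure it, 50 nL of library stock was pin-tooled onto RAW-Dual macrophages (50,000 cells/well, DMEM, 384-well plates), a PRR agonist followed 1 h later, and cells stayed at 37 °C, 5% CO2. Twenty hours on, supernatant was assayed for IRF (QuantiLuc luminescence) and NF-κB (QuantiBlue, 620 nm absorbance), and wells under 70% of agonist-control IncuCyte confluency in both mask sets were marked cytotoxic.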

RAW-Dual [2] = assay: NF-kB SEAP reporter activity, fold change vs agonist alone; higher = enhanced NF-kB activity; conditions: library stock concentration (final ~1000-fold dilution): 10 mM
Method in brief: as §1

RAW-Dual [3] = assay: NF-kB SEAP reporter activity, fold change vs agonist alone; cytotoxicity flag (confluency mask): cytotoxic (confluency <70% of control); higher = enhanced NF-kB activity
Method in brief: as §1

[4] = agonist: ODN 1826 (TLR9) 0.5 ug/mL
[5] = agonist: Pam2CSK4 (TLR2/6) 0.1 ug/mL
[6] = agonist: Pam3CSK4 (TLR2/1) 0.1 ug/mL
[7] = cytotoxicity flag (confluency mask): not cytotoxic, agonist: Imiquimod (TLR7) […]
[8] = cytotoxicity flag (confluency mask): not cytotoxic, agonist: MPLA (TLR4) […]
[9] = cytotoxicity flag (confluency mask): cytotoxic (confluency <70% of control), agonist: MPLA (TLR4) […]

## COC(=O)CCc1ccc(OCC(O)CNC(C)C)cc1 (configuration not stated) (library stock concentration (final ~1000-fold dilution): 10 mM)
RAW-Dual [1]; agonist: LPS (TLR4) 0.1 ug/mL
  NF-kB SEAP reporter activity: 1.61
RAW-Dual [1]; [4]
  NF-kB SEAP reporter activity: 0.82
RAW-Dual [1]; [5]
  NF-kB SEAP reporter activity: 0.942
RAW-Dual [1]; [6]
  NF-kB SEAP reporter activity: 0.804

## COC(=O)CCc1ccc(OCC(O)CNC(C)C)cc1 (configuration not stated)
RAW-Dual [2]; [7]
  NF-kB SEAP reporter activity: 0.811
RAW-Dual [2]; [8]
  NF-kB SEAP reporter activity: 0.998

## COc1cc(C(=O)NC2CCN(C)CC2)ccc1Nc1ncc2c(n1)N(C1CCCC1)CC(F)(F)C(=O)N2C
RAW-Dual [2]; [9]
  NF-kB SEAP reporter activity: 2.85

## COc1cc(C(=O)NC2CCN(C)CC2)ccc1Nc1ncc2c(n1)N(C1CCCC1)CC(F)(F)C(=O)N2C (library stock concentration (final ~1000-fold dilution): 10 mM)
RAW-Dual [3]; agonist: LPS (TLR4) 0.1 ug/mL
  NF-kB SEAP reporter activity: 5.16
RAW-Dual [3]; [6]
  NF-kB SEAP reporter activity: 3.04

## O=C(NCc1cccc(O)c1)Nc1nc(-c2ccncc2)cs1 (library stock concentration (final ~1000-fold dilution): 10 mM)
RAW-Dual [1]; agonist: LPS (TLR4) 0.1 ug/mL
  NF-kB SEAP reporter activity: 1.01
RAW-Dual [1]; [4]
  NF-kB SEAP reporter activity: 1.21
RAW-Dual [1]; [5]
  NF-kB SEAP reporter activity: 1.24
RAW-Dual [1]; [6]
  NF-kB SEAP reporter activity: 1.88

## O=C(NCc1cccc(O)c1)Nc1nc(-c2ccncc2)cs1
RAW-Dual [2]; [7]
  NF-kB SEAP reporter activity: 1.3
RAW-Dual [2]; [8]
  NF-kB SEAP reporter activity: 1.45

## O=c1oc2cc(O)ccc2c2ccccc12
RAW-Dual [2]; [7]
  NF-kB SEAP reporter activity: 0.97
RAW-Dual [2]; [8]
  NF-kB SEAP reporter activity: 1.04

## O=c1oc2cc(O)ccc2c2ccccc12 (library stock concentration (final ~1000-fold dilution): 10 mM)
RAW-Dual [1]; agonist: LPS (TLR4) 0.1 ug/mL
  NF-kB SEAP reporter activity: 0.705
RAW-Dual [1]; [4]
  NF-kB SEAP reporter activity: 0.974
RAW-Dual [1]; [5]
  NF-kB SEAP reporter activity: 0.656
RAW-Dual [1]; [6]
  NF-kB SEAP reporter activity: 0.986

## CN1C(C(=O)Nc2ccccn2)=C(O)c2ccccc2S1(=O)=O (library stock concentration (final ~1000-fold dilution): 10 mM)
RAW-Dual [1]; agonist: LPS (TLR4) 0.1 ug/mL
  NF-kB SEAP reporter activity: 1.29
RAW-Dual [1]; [4]
  NF-kB SEAP reporter activity: 1.05
RAW-Dual [1]; [5]
  NF-kB SEAP reporter activity: 1.06
RAW-Dual [1]; [6]
  NF-kB SEAP reporter activity: 1.14

## CN1C(C(=O)Nc2ccccn2)=C(O)c2ccccc2S1(=O)=O
RAW-Dual [2]; [7]
  NF-kB SEAP reporter activity: 0.942
RAW-Dual [2]; [8]
  NF-kB SEAP reporter activity: 1.02

## COc1c(C)c2c(c(O)c1C/C=C(\C)CCC(=O)OCCN1CCOCC1)C(=O)OC2 (library stock concentration (final ~1000-fold dilution): 10 mM)
RAW-Dual [3]; agonist: LPS (TLR4) 0.1 ug/mL
  NF-kB SEAP reporter activity: 0.479
RAW-Dual [3]; [4]
  NF-kB SEAP reporter activity: 0.439
RAW-Dual [3]; [5]
  NF-kB SEAP reporter activity: 0.176
RAW-Dual [3]; [6]
  NF-kB SEAP reporter activity: 0.286

## COc1c(C)c2c(c(O)c1C/C=C(\C)CCC(=O)OCCN1CCOCC1)C(=O)OC2
RAW-Dual [2]; cytotoxicity flag (confluency mask): cytotoxic (confluency <70% of control), agonist: Imiquimod (TLR7) […]
  NF-kB SEAP reporter activity: 1.24
RAW-Dual [2]; [9]
  NF-kB SEAP reporter activity: 0.477

## NCCS (library stock concentration (final ~1000-fold dilution): 10 mM)
RAW-Dual [1]; agonist: LPS (TLR4) 0.1 ug/mL
  NF-kB SEAP reporter activity: 1.14
RAW-Dual [1]; [4]
  NF-kB SEAP reporter activity: 1.13
RAW-Dual [1]; [5]
  NF-kB SEAP reporter activity: 1.06
RAW-Dual [1]; [6]
  NF-kB SEAP reporter activity: 0.908

## NCCS
RAW-Dual [2]; [7]
  NF-kB SEAP reporter activity: 1.02
RAW-Dual [2]; [8]
  NF-kB SEAP reporter activity: 1.03

## CC(Oc1ccc(S(C)(=O)=O)cc1C(=O)N1CCN(c2ncc(C(F)(F)F)cc2F)CC1)C(F)(F)F (configuration not stated)
RAW-Dual [2]; [7]
  NF-kB SEAP reporter activity: 1.01
RAW-Dual [2]; [8]
  NF-kB SEAP reporter activity: 0.944

## CC(Oc1ccc(S(C)(=O)=O)cc1C(=O)N1CCN(c2ncc(C(F)(F)F)cc2F)CC1)C(F)(F)F (configuration not stated) (library stock concentration (final ~1000-fold dilution): 10 mM)
RAW-Dual [1]; agonist: LPS (TLR4) 0.1 ug/mL
  NF-kB SEAP reporter activity: 0.836
RAW-Dual [1]; [4]
  NF-kB SEAP reporter activity: 0.82
RAW-Dual [1]; [5]
  NF-kB SEAP reporter activity: 0.703
RAW-Dual [1]; [6]
  NF-kB SEAP reporter activity: 0.763

## COc1c(OC2OC(CO)C(O)C(O)C2O)cc2c(c1OC)-c1ccc(SC)c(=O)cc1C(NC(C)=O)CC2 (configuration not stated)
RAW-Dual [2]; [8]
  NF-kB SEAP reporter activity: 1.03

## COc1c(OC2OC(CO)C(O)C(O)C2O)cc2c(c1OC)-c1ccc(SC)c(=O)cc1C(NC(C)=O)CC2 (configuration not stated) (library stock concentration (final ~1000-fold dilution): 10 mM)
RAW-Dual [1]; agonist: LPS (TLR4) 0.1 ug/mL
  NF-kB SEAP reporter activity: 1.05
RAW-Dual [1]; [4]
  NF-kB SEAP reporter activity: 0.973
RAW-Dual [1]; [5]
  NF-kB SEAP reporter activity: 1.07
RAW-Dual [1]; [6]
  NF-kB SEAP reporter activity: 1.03

## Cc1nc(NC(=O)N2CCCC2C(N)=O)sc1-c1csc(C(C)(C)C)n1 (configuration not stated)
RAW-Dual [2]; [7]
  NF-kB SEAP reporter activity: 1.01
RAW-Dual [2]; [8]
  NF-kB SEAP reporter activity: 0.941

## Cc1nc(NC(=O)N2CCCC2C(N)=O)sc1-c1csc(C(C)(C)C)n1 (configuration not stated) (library stock concentration (final ~1000-fold dilution): 10 mM)
RAW-Dual [1]; agonist: LPS (TLR4) 0.1 ug/mL
  NF-kB SEAP reporter activity: 0.881
RAW-Dual [1]; [4]
  NF-kB SEAP reporter activity: 1.41
RAW-Dual [1]; [5]
  NF-kB SEAP reporter activity: 1.32
RAW-Dual [1]; [6]
  NF-kB SEAP reporter activity: 1

## O=C(O)c1ccc(-n2nc(-c3ccccc3O)nc2-c2ccccc2O)cc1 (library stock concentration (final ~1000-fold dilution): 10 mM)
RAW-Dual [1]; agonist: LPS (TLR4) 0.1 ug/mL
  NF-kB SEAP reporter activity: 1.37
RAW-Dual [1]; [4]
  NF-kB SEAP reporter activity: 1.05
RAW-Dual [1]; [5]
  NF-kB SEAP reporter activity: 0.98
RAW-Dual [1]; [6]
  NF-kB SEAP reporter activity: 0.979

## O=C(O)c1ccc(-n2nc(-c3ccccc3O)nc2-c2ccccc2O)cc1
RAW-Dual [2]; [7]
  NF-kB SEAP reporter activity: 1.12
RAW-Dual [2]; [8]
  NF-kB SEAP reporter activity: 1.08

## Cc1cc(C#N)cc(C)c1Oc1nc(Nc2ccc(C#N)cc2)nc(N)c1Br (library stock concentration (final ~1000-fold dilution): 10 mM)
RAW-Dual [1]; agonist: LPS (TLR4) 0.1 ug/mL
  NF-kB SEAP reporter activity: 1.78
RAW-Dual [1]; [4]
  NF-kB SEAP reporter activity: 1.16
RAW-Dual [1]; [5]
  NF-kB SEAP reporter activity: 0.538
RAW-Dual [1]; [6]
  NF-kB SEAP reporter activity: 0.712

## Cc1cc(C#N)cc(C)c1Oc1nc(Nc2ccc(C#N)cc2)nc(N)c1Br
RAW-Dual [2]; [7]
  NF-kB SEAP reporter activity: 1.8
RAW-Dual [2]; [8]
  NF-kB SEAP reporter activity: 1.86

## C=CC1(C)CC(OC(=O)CSCCN(CC)CC)C2(C)C(C)CCC3(CCC(=O)C32)C(C)C1O (configuration not stated)
RAW-Dual [2]; [8]
  NF-kB SEAP reporter activity: 1.12

## C=CC1(C)CC(OC(=O)CSCCN(CC)CC)C2(C)C(C)CCC3(CCC(=O)C32)C(C)C1O (configuration not stated) (library stock concentration (final ~1000-fold dilution): 10 mM)
RAW-Dual [1]; agonist: LPS (TLR4) 0.1 ug/mL
  NF-kB SEAP reporter activity: 1.56
RAW-Dual [1]; [4]
  NF-kB SEAP reporter activity: 0.725
RAW-Dual [1]; [5]
  NF-kB SEAP reporter activity: 1.11
RAW-Dual [1]; [6]
  NF-kB SEAP reporter activity: 0.934

## CNS(=O)(=O)CC1CCC(N(C)c2ncnc3[nH]ccc23)CC1.O=C(O)/C=C\C(=O)O (configuration not stated) (library stock concentration (final ~1000-fold dilution): 10 mM)
RAW-Dual [1]; agonist: LPS (TLR4) 0.1 ug/mL
  NF-kB SEAP reporter activity: 0.402
RAW-Dual [1]; [4]
  NF-kB SEAP reporter activity: 0.367
RAW-Dual [1]; [5]
  NF-kB SEAP reporter activity: 0.13
RAW-Dual [1]; [6]
  NF-kB SEAP reporter activity: 0.193
